The labels stand for the following.
B1: TPR 5TU (parent)
chain: GGAUCUUCUCGAUCUAACAAAAAAGACAAAUCUGCCACAAAGCUUGAGAGCAUCUUCGGAUGCAGAGGCGGCAGCCUUCGGUGGCGCGAUAGCGCCAACGUUCUCAACUAUGACACGCAAAACGCGUGCUCCGUUGAAUGGAGUUUAUCAUG

Variants at the floor of the assay are shown more often than the library holds them.

This data set covers variants of B1. The data set can be described thus: polymerase ribozyme fitness, log enrichment relative to wild type (log ratio); higher = more active; in vitro selection for triplet polymerase activity. Summed up: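 PCR was used to build mutant libraries for each subunit of a heterodimeric triplet polymerase ribozyme, which were then transcribed. A single in vitro selection round, in triplicate, used a frozen incubation at −7 °C and recovered extended constructs by gel excision, streptavidin beads and RT-PCR. Fitness is the logarithm of genotype enrichment relative to wild-type enrichment, averaged over replicates with inverse-variance weights. The logarithm is base 2, and after Illumina sequencing only genotypes with ≥10 input reads and ≥1 read per output were kept.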
As to A12U C14A C85G U145C, the “polymerase ribozyme fitness (log ratio)” value was -3.7.
With A12G C18U A19G G84A G86U C95A C99U U101A C123G, the “polymerase ribozyme fitness (log ratio)” value was at most -4.2.
On to A12U G34C G62C A73U C96U A107G C116G A147G, for which the “polymerase ribozyme fitness (log ratio)” value was at most -4.2.
A12U U31G A40C A49C A60G C93U: the “polymerase ribozyme fitness (log ratio)” value is at most -4.2.
A12G A28C A30C A39U C51U C85G G124C: the “polymerase ribozyme fitness (log ratio)” value is at most -4.2.
Turning to A12U A17U C18U G34A A64G C87G, the “polymerase ribozyme fitness (log ratio)” value was at most -4.2.
In the case of A12G G83A G126U U134C U148G, the “polymerase ribozyme fitness (log ratio)” value was at most -4.2.
For the variant A12G C116G, the “polymerase ribozyme fitness (log ratio)” value was found to be 0.204.
On to A12G C54A C99U, for which the “polymerase ribozyme fitness (log ratio)” value is -1.32.
Regarding A12G C85U C129A U151C, the “polymerase ribozyme fitness (log ratio)” value was at most -4.2.
Turning to A12U U55G U56G C79A C96U A113G G117A, the “polymerase ribozyme fitness (log ratio)” value is at most -4.2.
As to A12G C14A C57A C85G, the “polymerase ribozyme fitness (log ratio)” value was -3.75.
For A12U G88C A97G C118A A150U, the “polymerase ribozyme fitness (log ratio)” value is at most -4.2.
As for A12U G50A C63G C76A C93U C125U U127G, the figure is at most -4.2; as for A12U C32G G100A C129A U144G, at most -4.2.
For A12G G34U C93U U144A U151G, the “polymerase ribozyme fitness (log ratio)” value is at most -4.2.
As to A12G U55A U61G C125G, the “polymerase ribozyme fitness (log ratio)” value was -3.62.
On to A12U A40C G92A C118G, for which the “polymerase ribozyme fitness (log ratio)” value is -3.87.
As to A12U A20G A52U G141A, the “polymerase ribozyme fitness (log ratio)” value was -3.17.
A12U G58C G62U U127C G140A: the “polymerase ribozyme fitness (log ratio)” value was at most -4.2.
The value for U13A A23U G59A C87U was at most -4.2; that for A12U A66C C87U C118A was at most -4.2.
On to U13A A30U U33G G46A G86A A91U A119G, for which the “polymerase ribozyme fitness (log ratio)” value was at most -4.2.
As for U13A A29U U44A C72G C96U A97U, the “polymerase ribozyme fitness (log ratio)” value was at most -4.2.
Take A12G A16C A119U A121G U135C U146A A150G: the “polymerase ribozyme fitness (log ratio)” value is -4.12.
The value for A12U U15A A21U U55A C76U C79A A121U was at most -4.2; that for A12G U44A was at most -4.2; that for A12U U53A C79G U90C A97C U139A U148C G152U was at most -4.2.
As for A12U C51A U77G A147C, the “polymerase ribozyme fitness (log ratio)” value was at most -4.2.
Regarding A12U C85U C93A G133U, the “polymerase ribozyme fitness (log ratio)” value was at most -4.2.
Turning to A12U A28G C43U G59A A60G, the “polymerase ribozyme fitness (log ratio)” value is at most -4.2.
With U13A A20U A22U G48C U55G C99A C114G U139A, the “polymerase ribozyme fitness (log ratio)” value is at most -4.2.
With A12G A29C C43G G50C G67C C99G U101G A115U, the “polymerase ribozyme fitness (log ratio)” value is at most -4.2.
As for A12G C54U C108G U109G U130G, the figure is at most -4.2.
Take A12G C14G A17G A66C C116U U148A: the “polymerase ribozyme fitness (log ratio)” value is at most -4.2.
With A12G U13C C38U G58A A73U, the “polymerase ribozyme fitness (log ratio)” value was -1.35.
The value for A12U U55G A142C was -1.46.
For A12G A49C G58A, the “polymerase ribozyme fitness (log ratio)” value is at most -4.2.
A12G A49C G58C C87A C95U G126A A137G G152A: the “polymerase ribozyme fitness (log ratio)” value is at most -4.2.
A12U A26C G50A G67C C85A C96U G143C: the “polymerase ribozyme fitness (log ratio)” value was at most -4.2.
Consider A12G A30U A91U C95U G100U A107G C114A A122U U144G, for which the “polymerase ribozyme fitness (log ratio)” value was at most -4.2.
For A12U C14U C43G C96U A142U, the “polymerase ribozyme fitness (log ratio)” value is at most -4.2.
For the variant A12G A66C G84C G88A A120C, the “polymerase ribozyme fitness (log ratio)” value was at most -4.2.
For the variant A12U A37C C95G C123A G143U, the “polymerase ribozyme fitness (log ratio)” value was at most -4.2.
On to A12U A26C C35A U55C G59C C76A C93A U111C A138G U144A, for which the “polymerase ribozyme fitness (log ratio)” value was at most -4.2.
Consider A12U U53A C57U G92U C99A A120U A150G, for which the “polymerase ribozyme fitness (log ratio)” value is at most -4.2.
As for A12U A39U A150C, the figure is at most -4.2; as for U13A A22U U53A G62C A64U U90A A91C C103A A106G C108U G126C, at most -4.2.
For A12G A49G U56A U61A G88A G136C U151G, the “polymerase ribozyme fitness (log ratio)” value is at most -4.2.
In the case of A12G C54U G68C C99U G133C A137U, the “polymerase ribozyme fitness (log ratio)” value was at most -4.2.
In the case of A12U U102G, the “polymerase ribozyme fitness (log ratio)” value was -3.28.
A12U G42C C43A A66U G136U U144C U145G: the “polymerase ribozyme fitness (log ratio)” value was at most -4.2.
As for A12U U55G A60U G83C A137U G141U, the figure is at most -4.2; as for A12G A40C A41U A64U G68C C72A U78G A89G C95U G140U, at most -4.2; as for A12G A21G G83C A107G G112U G143U, at most -4.2.
Consider A12G G48A G71A G86A G126U C131A G140U C149A A150G, for which the “polymerase ribozyme fitness (log ratio)” value is at most -4.2.
Consider A12C U61G C75G C96U C131U G140U G141A, for which the “polymerase ribozyme fitness (log ratio)” value is at most -4.2.
Consider A12G C54A G58C G80U G92A G112C, for which the “polymerase ribozyme fitness (log ratio)” value was at most -4.2.
In the case of U13A A17U U31G G59A C95U A110U G140U G141U, the “polymerase ribozyme fitness (log ratio)” value is at most -4.2.
As for A12U A24U A66C C87G G88A C116U G124U A147U, the figure is at most -4.2; as for A12G A17U C57G G65U A107G A122G A147G, at most -4.2; as for A12U C14G A22C A47C U56A C75G G84U C99A C105A, at most -4.2.
As for A12G G70A C85U C105G C116A, the figure is at most -4.2; as for A12C G92C A138U, at most -4.2.
Take A12C U44A C95A: the “polymerase ribozyme fitness (log ratio)” value was at most -4.2.
On to A12U A20U C85G C103G C123U G141C, for which the “polymerase ribozyme fitness (log ratio)” value is at most -4.2.
As for A12G C85A A113U G133A U151A, the figure is at most -4.2; as for A12U U13A C85A C93G, at most -4.2; as for A12U C36G G86A A110C U139A, -4.11.
With A12U C18G C32G G50C U53C C85A C103A, the “polymerase ribozyme fitness (log ratio)” value was at most -4.2.
As for U13A A29C, the “polymerase ribozyme fitness (log ratio)” value is at most -4.2.
The value for A12U A91U A120G U146A was -4.18; that for A12U U56G A89G C93A A113G was -3.89; that for A12G A39C G84A A138C G143U U148C was at most -4.2.
Consider A12G A39U A47U U53A C93A, for which the “polymerase ribozyme fitness (log ratio)” value was at most -4.2.
As to A12G U90G C93A G112A, the “polymerase ribozyme fitness (log ratio)” value was at most -4.2.
The value for A12G A16U A26U G83U C87G U145C was at most -4.2; that for A12C U53C G74A C76G C96U A110U was at most -4.2; that for A12U A24U A28C G42U A60U C79G A91U G143A was at most -4.2.
For A12U U13C G25A G67C G88C A97U U111C, the “polymerase ribozyme fitness (log ratio)” value was at most -4.2.
The value for A12U A30G C87A was at most -4.2; that for A12G A52U C76U C93U A120U was -2.12; that for A12G G25U U53A G59C C96G C99U C116U G128A was at most -4.2.
